Experimental data as given in ChEMBL document CHEMBL1201862, “PubChem BioAssay data set” (2004).
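Briefly, cells in 96-well plates were exposed to five compound concentrations for 48 h, and endpoints were estimated by linear interpolation. GI50 = concentration required for 50% inhibition of growth.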 Calls of active or inactive are those of the source. Cut-off read from the data, not from the text of the source: active = GI50 up to about 1.1 µM and inactive = higher.

Key:
Assay in all cases: inhibition of tumour cell growth, NCI panel, 48 h
IGROV-1 = system: IGROV-1
UACC-257 = system: UACC-257
MDA-MB-231 = system: MDA-MB-231
SW-620 = system: SW-620
HL-60 = system: HL-60
NCI-H23 = system: NCI-H23
CAKI-1 = system: CAKI-1
HCC 2998 = system: HCC 2998
MDA-MB-435 = system: MDA-MB-435
A549 = system: A549
OVCAR-3 = system: OVCAR-3
OVCAR-8 = system: OVCAR-8
SNB-19 = system: SNB-19
BT-549 = system: BT-549
HOP-62 = system: HOP-62
TK-10 = system: TK-10
NCI/ADR-RES = system: NCI/ADR-RES
HCT-116 = system: HCT-116
EKVX = system: EKVX
MOLT-4 = system: MOLT-4
SR = system: SR
MCF7 = system: MCF7
HOP-92 = system: HOP-92
Malme-3M = system: Malme-3M
MDA-N = system: MDA-N
786-0 = system: 786-0
COLO 205 = system: COLO 205
SF-295 = system: SF-295
A498 = system: A498
HCT-15 = system: HCT-15
CCRF-CEM = system: CCRF-CEM
RPMI-8226 = system: RPMI-8226
SK-MEL-28 = system: SK-MEL-28
U-251 = system: U-251
NCI-H226 = system: NCI-H226
HT-29 = system: HT-29
OVCAR-5 = system: OVCAR-5
LOX IMVI = system: LOX IMVI
SF-268 = system: SF-268
DU-145 = system: DU-145
SK-MEL-5 = system: SK-MEL-5
RXF 393 = system: RXF 393
KM12 = system: KM12
Hs-578T = system: Hs-578T
SNB-75 = system: SNB-75
SN12C = system: SN12C
SF-539 = system: SF-539
NCI-H522 = system: NCI-H522
PC-3 = system: PC-3
NCI-H460 = system: NCI-H460
ACHN = system: ACHN
K562 = system: K562

Measured: GI50

O=C1Cc2c([nH]c3ccc(F)cc23)-c2ccccc2N1
17.5 µM: HCT-15
inactive: IGROV-1 = 22.2 µM | UACC-257 = 65.5 µM | MDA-MB-231 = 26.5 µM | SW-620 = 32.8 µM | HL-60 = 17 µM | NCI-H23 = 27 µM | CAKI-1 = 33.7 µM | HCC 2998 = 26.2 µM | MDA-MB-435 = 31 µM | A549 = 15.3 µM | OVCAR-3 = 22.5 µM | OVCAR-8 = 36.8 µM | SNB-19 = 34.3 µM | BT-549 = 43 µM | HOP-62 = 15 µM | TK-10 = 46.2 µM | NCI/ADR-RES 30.8 µM | HCT-116 = 8.2 µM | EKVX 24 µM | MOLT-4 = 16 µM | SR 10.4 µM | MCF7 = 18.4 µM | HOP-92 = 30.1 µM | Malme-3M 50.1 µM | MDA-N 34.3 µM | 786-0 = 28.6 µM | COLO 205 = 24.8 µM | SF-295 = 48.1 µM | A498 = 41.8 µM | CCRF-CEM 18.7 µM | RPMI-8226 = 19.1 µM | SK-MEL-28 = 32.5 µM | U-251 = 23.2 µM | NCI-H226 = 42.2 µM | HT-29 = 20.9 µM | OVCAR-5 = 34.4 µM | LOX IMVI 18.4 µM | SF-268 = 29.5 µM | DU-145 = 34.8 µM | SK-MEL-5 = 7.62 µM | RXF 393 = 3.16 µM | KM12 = 18.8 µM | Hs-578T 18.1 µM | SNB-75 = 23.4 µM | SN12C 18.3 µM | SF-539 = 21.7 µM | NCI-H522 = 18.2 µM | PC-3 = 24.6 µM | NCI-H460 = 21.9 µM | ACHN 16.8 µM | K562 = 19.1 µM
